According to the supplement of paper PMC12217912:
The list shows a part of the results. The full chains were built here from the parent and the listed change. Inactive controls read about 0.05.

B1: TEV protease; numbered along this chain (parent)
chain: MGESLFKGPRDYNPISSSICHLTNESDGHTTSLYGIGFGPFIITNKHLFRRNNGTLVVQSLHGVFKVKDTTTLQQHLVDGRDMIIIRMPKDFPPFPQKLKFREPQREERICLVTTNFQTKSMSSMVSDTSCTFPSGDGIFWKHWIQTKDGQCGSPLVSTRDGFIVGIHSASNFTNTNNYFTSVPKNFMELLTNQEAQQWVSGWRLNADSVLWGGHKVFMVKPEEPFQPVKEATQL

Variants of: B1
Experiment: raw area under fraction-flipped curve 0-4 h after induction (AUC4h, not background-subtracted), DNA-recorder readout of cleavage of the substrate (dimensionless); higher = more cleavage of the substrate by the protease variant
Conditions: temperature: 34 °C; time window: 0-4 h after rhamnose induction
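Also: Bxb1 expression induced with 0.2% (w/v) L-rhamnose at OD600 near 0.5, cultures sampled hourly, flipped fraction per protease–substrate barcode pair counted by paired-end Illumina sequencing.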

Variant	area with substrate ECLYFQS	area with substrate EELYFQS	area with substrate EFLYFQS	area with substrate EGLYFQS	area with substrate EILYFQS	area with substrate EQLYFQS	area with substrate ERLYFQS	area with substrate ETLYFQS	area with substrate EVLYFQS	area with substrate EWLYFQS	area with substrate EHLYFQS	area with substrate EKLYFQS	area with substrate ELLYFQS	area with substrate ESLYFQS	area with substrate EYLYFQS	area with substrate EPLYFQS	area with substrate EMLYFQS	area with substrate EDLYFQS
G153D	0.0403	0.0573	0.0259	0.0237	0.0158	0.0374	0.0419	0.0354	0.0449	0.0512	–	–	–	–	–	–	–	–
G150M	0.0503	0.0547	–	0.0542	0.0577	–	0.0594	–	0.0579	0.0637	0.0586	0.0223	0.0518	0.0605	0.059	–	–	–
C131A	0.0969	–	–	0.0879	–	–	–	0.106	–	–	–	–	–	–	–	–	–	–
L156P	0.0516	0.0445	0.0462	0.0553	0.0345	0.0537	0.0549	–	0.0411	0.0547	–	–	0.0551	0.0562	–	0.0547	–	–
S123L	0.0952	–	–	–	0.094	0.115	0.0896	0.121	0.0935	–	–	0.106	0.117	0.107	0.0925	–	0.105	–
D149E	0.0987	0.12	–	0.0699	0.107	0.0883	0.0934	0.134	0.0681	0.0947	–	–	0.0818	0.0962	0.0667	0.144	–	0.0951
H143Q	0.0572	0.0677	–	0.0583	0.0627	0.0783	0.0636	0.0598	0.0552	–	0.0621	–	–	0.0563	0.061	–	0.065	–
Q151V	0.102	–	–	0.0873	0.0914	0.0954	–	0.126	0.116	0.0893	–	0.0894	–	0.0874	0.102	–	–	0.102
T115H	0.103	–	0.0658	–	0.0979	0.121	0.103	–	–	–	–	0.1	–	0.0912	–	–	0.114	–
S121N	0.0895	–	–	0.103	0.131	0.127	–	–	–	–	0.108	0.0912	–	0.112	–	0.138	0.119	0.127
C111E	0.1	0.0939	–	–	–	0.093	0.0908	0.0836	0.0754	–	–	0.0958	–	–	–	–	0.115	–
C111Q	0.0949	–	–	–	–	0.136	0.0963	–	0.12	0.0946	0.0974	–	0.103	0.0996	–	–	–	–
I145A	0.14	–	–	0.113	–	0.174	0.113	–	0.11	–	–	0.109	–	–	–	0.141	–	–
I145S	0.134	0.163	–	–	0.115	0.137	–	0.181	0.125	0.139	–	0.166	–	0.17	–	–	0.144	0.165
G162T	0.0877	–	–	–	0.085	0.0711	0.0958	–	0.0845	–	–	0.0988	0.0856	0.0968	0.134	0.128	0.104	–
G162Q	0.134	0.099	0.0793	0.103	0.0827	–	0.0874	–	0.0656	0.105	0.0997	0.107	0.0753	0.0885	0.0687	–	0.117	–
S169L	0.0735	–	–	–	–	0.051	0.0632	0.0592	0.0724	–	–	–	–	0.042	–	–	0.029	–
